Test results as given in US20210324028A1 (Pfizer, published 2021).

Tests used:
human IL-15Rα [1] = target: T1, human IL-15Rα (human, UniProt Q13261 31-205, limits assumed); experiment: SPR, fusion captured
T1 construct: also called hIL-15Rα; IL-15 receptor alpha
Experimental: (§1) Anti-human Fc sensor chips were prepared at 25° C. with a running buffer of 10 mM HEPES, 150 mM NaCl, 0.05% (v/v) Tween-20, pH 7.4. All surfaces of a Biacore CM4 sensor chip were activated with a 1:1 (v/v) mixture of 400 mM EDC and 100 mM NHS for 7 minutes, at a flow rate of 10 μL/min. An anti-human Fc reagent (Goat anti-human IgG Fc-γ specific, SouthernBiotech, Birmingham, Ala., Catalog #2014-01) was diluted to 50 μg/mL in 10 mM sodium acetate (pH 4.5) and injected on all flow cells for 7 minutes at 20 μL/min. All flow cells were blocked with 100 mM ethylenediamine in 200 mM Borate buffer pH 8.5 for 7 minutes at 10 μL/min.
(§2) All protein interaction experiments were performed at 37° C. using a running buffer of 10 mM HEPES, 150 mM NaCl, 0.05% (v/v) Tween-20, pH 7.4, 1 mg/mL BSA. Anti-PD-1-hIL-15 fusion proteins were captured at 10 μg/mL at a flow rate of 10 μL/min for 2 minutes. Different fusion proteins were captured in flow cells 2, 3 and 4. No protein was captured onto flow cell 1 which was used as a reference surface. […] After each analyte injection, dissociation was monitored for 5 minutes followed by regeneration of all flow cells with three 60-second injections of 75 mM phosphoric acid. […] For kinetic analysis, the double-referenced sensorgrams were fit globally to a simple 1:1 Langmuir with mass transport binding model using Biacore T200 Evaluation Software version 2.0. […]

human IL-2Rβ [2] = target: T2, human IL-2Rβ (human, UniProt P14784 27-240, limits assumed); experiment: SPR, steady state, fusion captured
T2 construct: also called hIL-2Rβ; IL-2 receptor beta
T2 sequence (looked up): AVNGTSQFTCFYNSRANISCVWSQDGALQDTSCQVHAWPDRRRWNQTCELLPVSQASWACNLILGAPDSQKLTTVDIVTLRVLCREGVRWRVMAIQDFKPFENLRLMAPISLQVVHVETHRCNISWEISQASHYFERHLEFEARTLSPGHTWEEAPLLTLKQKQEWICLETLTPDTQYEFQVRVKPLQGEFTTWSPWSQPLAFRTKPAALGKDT
Experimental: as §1
(§3) All protein interaction experiments were performed at 37° C. using a running buffer of 10 mM HEPES, 150 mM NaCl, 0.05% (v/v) Tween-20, pH 7.4, 1 mg/mL BSA. Anti-PD-1-hIL-15 fusion proteins were captured at 10 μg/mL at a flow rate of 10 μL/min for 2 minutes. Different fusion proteins were captured in flow cells 2, 3 and 4. No protein was captured onto flow cell 1 which was used as a reference surface. […] After each analyte injection, dissociation was monitored for 5 minutes followed by regeneration of all flow cells with three 60-second injections of 75 mM phosphoric acid. […] For kinetic analysis, the double-referenced sensorgrams were fit globally to a simple 1:1 Langmuir with mass transport binding model using Biacore T200 Evaluation Software version 2.0. For steady-state affinity analysis, the double-referenced equilibrium binding responses were fit with a 1:1 Langmuir steady-state model using Biacore T200 Evaluation Software version 2.0.

human IL-15Rα [3] = target: T1, human IL-15Rα; experiment: SPR, steady state, fusion captured
T1 sequence (Q13261 31-205 limits assumed): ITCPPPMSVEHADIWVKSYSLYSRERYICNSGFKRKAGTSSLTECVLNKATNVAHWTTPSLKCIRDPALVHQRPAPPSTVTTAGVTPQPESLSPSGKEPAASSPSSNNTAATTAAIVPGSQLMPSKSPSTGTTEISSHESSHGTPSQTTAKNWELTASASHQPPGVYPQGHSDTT
Experimental: as §1, §3

human IL-15Rα [4] = target: T1, human IL-15Rα; experiment: SPR, kinetic fit, fusion captured
Experimental: as §1, §3

human IL-2Rβ [5] = target: T2, human IL-2Rβ; experiment: SPR, fusion captured
Experimental: as §1, §2

B1: xmPD-1-hIL15 V49R/E53Q (other)
heavy 1: HHHHHHHHGGGGSGSGGEVQLVESGGGLVKPGGSLELSCAASGFTFSSYWMSWVRQAPEKGLEWVAAISPSGGSTYYADSVKGRFTISRDNAKNTLFLQMTSLRSEDTAMYYCAKESWGAYYDLWGQGTTVTVSSASTKGPSVFPLAPCSRSTSESTAALGCLVKDYFPEPVTVSWNSGALTSGVHTFPAVLQSSGLYSLSSVVTVPSSNFGTQTYTCNVDHKPSNTKVDKTVERKCRVRCPRCPAPPVAGPSVFLFPPKPKDTLMISRTPEVTCVVVAVSHEDPEVQFNWYVDGVEVHNAKTKPREEQFNSTFRVVSVLTVVHQDWLNGKEYKCKVSNKGLPSSIEKTISKTKGQPREPQVYTLPPSREEMTKNQVSLTCLVKGFYPSDIAVEWESNGQPENNYKTTPPMLDSDGSFFLYSRLTVDKSRWQQGNVFSCSVMHEALHNHYTQKSLSLSPGK
heavy 2: EVQLVESGGGLVKPGGSLELSCAASGFTFSSYWMSWVRQAPEKGLEWVAAISPSGGSTYYADSVKGRFTISRDNAKNTLFLQMTSLRSEDTAMYYCAKESWGAYYDLWGQGTTVTVSSASTKGPSVFPLAPCSRSTSESTAALGCLVKDYFPEPVTVSWNSGALTSGVHTFPAVLQSSGLYSLSSVVTVPSSNFGTQTYTCNVDHKPSNTKVDKTVERKCEVECPECPAPPVAGPSVFLFPPKPKDTLMISRTPEVTCVVVAVSHEDPEVQFNWYVDGVEVHNAKTKPREEQFNSTFRVVSVLTVVHQDWLNGKEYKCKVSNKGLPSSIEKTISKTKGQPREPQVYTLPPSREEMTKNQVSLTCEVKGFYPSDIAVEWESNGQPENNYKTTPPMLDSDGSFFLYSKLTVDKSRWQQGNVFSCSVMHEALHNHYTQKSLSLSPGSGGGGGTSATATPGA[about 120 residues with changes left out here]
light: DIVMTQSPSSLSVSAGDKVTMSCRASQGISSWLAWYQQKPWQPPKLLIYKASTLESGVPDRFTGSGSGTDFTLTISSVQAEDLAVYYCQQSYSTPWTFGGGTKLEIKGTVAAPSVFIFPPSDEQLKSGTASVVCLLNNFYPREAKVQWKVDNALQSGNSQESVTEQDSKDSTYSLSSTLTLSKADYEKHKVYACEVTHQGLSSPVTKSFNRGEC
notes: not restated for this mutant
- Kd (human IL-15Rα [1]): > 1500 nM
- Kd (human IL-2Rβ [2]): 590 nM

B2: xmPD-1-hIL15 V49R/E93Q (other)
heavy 1: B1 heavy 1
heavy 2: EVQLVESGGGLVKPGGSLELSCAASGFTFSSYWMSWVRQAPEKGLEWVAAISPSGGSTYYADSVKGRFTISRDNAKNTLFLQMTSLRSEDTAMYYCAKESWGAYYDLWGQGTTVTVSSASTKGPSVFPLAPCSRSTSESTAALGCLVKDYFPEPVTVSWNSGALTSGVHTFPAVLQSSGLYSLSSVVTVPSSNFGTQTYTCNVDHKPSNTKVDKTVERKCEVECPECPAPPVAGPSVFLFPPKPKDTLMISRTPEVTCVVVAVSHEDPEVQFNWYVDGVEVHNAKTKPREEQFNSTFRVVSVLTVVHQDWLNGKEYKCKVSNKGLPSSIEKTISKTKGQPREPQVYTLPPSREEMTKNQVSLTCEVKGFYPSDIAVEWESNGQPENNYKTTPPMLDSDGSFFLYSKLTVDKSRWQQGNVFSCSVMHEALHNHYTQKSLSLSPGSGGGGGTSATATPGA[about 120 residues with changes left out here]
light: B1 light
notes: not restated for this mutant
- Kd (human IL-2Rβ [2]): 451 nM
- Kd (human IL-15Rα [3]): 943 nM

B3: xmPD-1-hIL15(wild-type) (other)
heavy 1: EVQLVESGGGLVKPGGSLELSCAASGFTFSSYWMSWVRQAPEKGLEWVAAISPSGGSTYYADSVKGRFTISRDNAKNTLFLQMTSLRSEDTAMYYCAKESWGAYYDLWGQGTTVTVSSASTKGPSVFPLAPCSRSTSESTAALGCLVKDYFPEPVTVSWNSGALTSGVHTFPAVLQSSGLYSLSSVVTVPSSNFGTQTYTCNVDHKPSNTKVDKTVERKCEVECPECPAPPVAGPSVFLFPPKPKDTLMISRTPEVTCVVVAVSHEDPEVQFNWYVDGVEVHNAKTKPREEQFNSTFRVVSVLTVVHQDWLNGKEYKCKVSNKGLPSSIEKTISKTKGQPREPQVYTLPPSREEMTKNQVSLTCEVKGFYPSDIAVEWESNGQPENNYKTTPPMLDSDGSFFLYSKLTVDKSRWQQGNVFSCSVMHEALHNHYTQKSLSLSPGSGGGGGTSATATPGA[about 120 residues left out here]
heavy 2: B1 heavy 1
light: B1 light
- Kd (human IL-15Rα [4]): 0.084 nM
- koff (human IL-15Rα [4]): 0.000363 s⁻¹
- kon (human IL-15Rα [4]): 4.31e+06 M⁻¹ s⁻¹
- Kd (human IL-2Rβ [5]): 561 nM
